Measured values published in PubChem BioAssay AID1345082 (National Center for Advancing Translational Sciences (NCATS), 2018).
About 4,000 (4.3%) of roughly 94,000 compounds were called active. The shares of active, inactive and inconclusive entries below differ from those in the screen. The call rests on the fitted dose curve; in most records, active means well fitted inhibition curve with a large enough effect; inconclusive means small, poorly fitted or top-dose-only effect; inactive means no such curve, though single readings can be large or run the other way. Potencies beside an inconclusive call are fits to weak or partial responses and may not hold up.

test: Cytotoxic Profiling in NIH 3T3 Cell Line of Diverse Libraries Using Quantitative High-Throughput Screening; conditions: NIH 3T3 viability, CellTiter-Glo ATP luminescence, 48-72 h; series mostly up to 96.7 µM; further: nearly all actives have a fitted effect of over 55% in size
In short: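 Cells were seeded at 400 per well, treated with pin-transferred compound, and kept 48 or 72 hr at 37 °C before CellTiter-Glo addition and luminescence imaging of cellular ATP.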
Potency means the concentration at half of the fitted maximal effect; tags describe the fitted curve by direction and shape.

Row | SMILES | Potency
1 | Cc1ccc(OCCC2CCN(C(=O)c3ccc(C)nc3)C2)cc1 (stereo not drawn) | inconclusive: 31.6 µM [inhibitor, full curve]
2 | CN1C(=O)C(CC(N)=O)=C2CCCCC21 (stereo not drawn) | inactive
3 | Cc1cccc2c(C3CCN(S(=O)(=O)c4cc(Cl)cc(Cl)c4)CC3)c[nH]c12 | inconclusive: 25.1 µM [inhibitor, full curve, poor fit]
4 | Cc1noc(C)c1CNC(=O)[C@H]1CN(Cc2ccccc2)C[C@H]1C(=O)O | inconclusive: 50.1 µM [inhibitor, partial curve, poor fit]
5 | CN(C)c1cccc(C(=O)N2CCNc3cnc(Nc4ccc(N5CCOCC5)cc4)nc3C2)c1 | inactive
6 | COc1cccc(CN2CCCC(O)(CNC3CCCCCCC3)C2=O)c1 (stereo not drawn) | inconclusive: 50.1 µM [inhibitor, partial curve]
7 | COc1cc(OC)cc(C(=O)N2CCC3(CC2)NC(=O)N(c2ccc(F)cc2)N3)c1 | active: 25.1 µM
8 | O=C(NCC(=O)N1CCCCC1)c1cccc(-c2ccc(C(F)(F)F)cc2)c1 | inconclusive: 25.1 µM [inhibitor, partial curve]
9 | O=C(O)CCC(=O)N[C@H]1CCN2C(=O)c3cc(-c4ccc(Cl)cc4)ccc3NC(=O)[C@H]12 | inactive
10 | COc1ccc(C(=O)NCC2Cn3cccc3CN2Cc2cccnc2)cc1 (stereo not drawn) | inconclusive: 50.1 µM [inhibitor, partial curve, poor fit]
11 | CCOC(=O)C(Cc1cccc(N2CCN(C(=O)c3c(Cl)cccc3Cl)CC2)c1)OC (stereo not drawn) | inconclusive: 56.2 µM [inhibitor, partial curve, poor fit]
12 | COc1cccc(CNC(=O)C2CCN(C(=O)c3ccc(-c4cccc(OC)c4)cc3)CC2)c1 | inconclusive: 50.1 µM [inhibitor, partial curve, poor fit]
13 | O=C(Cc1c[nH]c2ncc(-c3ccccc3C(F)(F)F)cc12)N1CCOCC1 | inconclusive: 2.82 µM [inhibitor, full curve, poor fit]
14 | Cc1ccc(-n2nc(C)c([C@@H]3C=C[C@@H](NC(=O)NC(C)C)C3)c2C)cc1Cl | active: 63.1 µM
15 | O=C(NCc1ccccc1Cl)c1nc2sccn2c1-c1cccnc1 | inconclusive: 89.1 µM [inhibitor, partial curve, poor fit]
16 | Cc1ccc2nc(CO[C@H]3CN(C(=O)C4CC4)C[C@H]3F)[nH]c2c1 | inactive
17 | CCCN1C(=O)CCc2cc(NC(=O)c3ccc(C)s3)ccc21 | inconclusive: 50.1 µM [inhibitor, partial curve, poor fit]
18 | CN(C)c1ccc(NC(=O)c2ccc3c(c2)N(C)C2CCCCN2C3=O)cc1 (stereo not drawn) | inconclusive: 50.1 µM [inhibitor, partial curve, poor fit]
19 | Cc1cccc(-n2nc(C)c(CCC(=O)N3CCOCC3)c2Oc2ccccc2C)c1 | inconclusive: 50.1 µM [inhibitor, partial curve, poor fit]
20 | COc1ccc(-c2cc(N3CCC(NC(=O)Cc4ccccc4)CC3)n[nH]2)cc1 | inconclusive: 50.1 µM [inhibitor, partial curve, poor fit]
21 | COCc1cc(C[C@@H]2CC[C@H](O)[C@@H](CNC(=O)NC3CCCCC3)O2)no1 | inconclusive: 126 µM [inhibitor, single point]

Row | SMILES | Potency
22 | Cc1ccc(-n2cccn2)c(CN2CCC(CNS(C)(=O)=O)C2)c1 (stereo not drawn) | inactive
23 | COc1ccc(-n2c(=O)c3c(n2Cc2ccccc2)CN(C(=O)CNC(C)=O)CC3)cc1 | inconclusive: 56.2 µM [inhibitor, partial curve, poor fit]
24 | Cc1ccc(C)c(NC(=O)N2CCCC(c3noc(COc4ccccc4F)n3)C2)c1 (stereo not drawn) | inconclusive: 44.7 µM [inhibitor, partial curve, poor fit]
25 | COc1ccc(C(=O)N2C[C@@H]3CCCN4CCC[C@@H]([C@H]34)[C@H]2CCCC(=O)N2CCOCC2)cc1 | inactive
26 | O=C(c1ccccc1)N1C[C@H]2OC(=O)N(CCCN3CCOCC3)[C@H]2C1 | inactive
27 | N[C@@H]1CCN(Cc2ccccc2OCc2ccc(Cl)cc2)C[C@H]1O | active: 28.2 µM
28 | CN1CC2(CCN(C(=O)c3ccccc3F)CC2)CC(c2ccccc2)C1=O (stereo not drawn) | inactive
29 | COC(=O)[C@@H]1Cc2ncn(C(C)C)c2CN1S(=O)(=O)c1ccc(OC)cc1 | inactive
30 | Cn1nccc1C(=O)NCC1Cc2cc(-c3cccc(OC(F)(F)F)c3)ccc2O1 (stereo not drawn) | inconclusive: 44.7 µM [inhibitor, partial curve, poor fit]
31 | CC(C)c1cc(C(=O)N2CC[C@H](CO)[C@H](O)C2)cs1 | inactive
32 | O=C(C1CCCC1)N1CCC(c2noc(-c3ccccc3)n2)C1 (stereo not drawn) | inconclusive: 39.8 µM [inhibitor, partial curve, poor fit]
33 | COc1cccc(C(=O)NC2CCN(c3nccc(Nc4ccccc4F)n3)CC2)c1 | inconclusive: 44.7 µM [inhibitor, partial curve, poor fit]
34 | CS(=O)(=O)N[C@H]1C[C@H]2C(=O)Nc3ccc(-c4ccc(F)cc4F)cc3C(=O)N2C1 | inconclusive: 126 µM [inhibitor, single point]
35 | COc1ccccc1C(=O)NC1CCCc2c1[nH]c1c(Cl)cccc21 (stereo not drawn) | inconclusive: 35.5 µM [inhibitor, single point]
36 | CC(Cn1cccn1)C(=O)N1CCC(Oc2ccccc2)(C(=O)O)CC1 (stereo not drawn) | inactive
37 | Cc1ccccc1CN1CCc2ncc(C(=O)NCCOc3ccccc3)n2CC1 | inconclusive: 79.4 µM [inhibitor, partial curve, poor fit]
38 | Cc1noc(C)c1CC(=O)NCC1CCN(c2cc(-c3ccc(F)cc3)[nH]n2)CC1 | inconclusive: 44.7 µM [inhibitor, partial curve, poor fit]
39 | C[C@]12CC[C@H](O)CC1=CCN(Cc1cccc(OC(F)(F)F)c1)C2 | inactive
40 | COc1ccc(-c2cc(N3CCCC3)nc(N)n2)c2ccc(C)nc12 | inconclusive: 39.8 µM [inhibitor, full curve]
41 | CCN(CC)C(=O)C(NC(=O)c1ccc(F)cc1)C1CCN(C(=O)CC(C)C)CC1 (stereo not drawn) | inconclusive: 70.8 µM [inhibitor, partial curve, poor fit]
42 | O=C(c1ccco1)N1CCCC(CCc2cccc(F)c2)C1 (stereo not drawn) | inconclusive: 89.1 µM [inhibitor, single point]

Row | SMILES | Potency
43 | COCc1nc2nc(-c3ccccc3)c(-c3ccccc3O)cc2n1C | inconclusive: 100 µM [inhibitor, partial curve, poor fit]
44 | COc1ccc(CC(=O)N2CC(N3C(=O)c4c(c(C)nn4-c4ccccc4)C3C)C2)cc1 (stereo not drawn) | inconclusive: 39.8 µM [inhibitor, partial curve, poor fit]
45 | O=C(Cc1cccc(Cl)c1)NCCNC(=O)c1cccc(-c2ccc(C(F)(F)F)cc2)c1 | inactive
46 | COc1cccc(C2Cn3nnc(-c4nc(-c5ccc(OC)c(F)c5)no4)c3CO2)c1 (stereo not drawn) | inconclusive: 56.2 µM [inhibitor, partial curve, poor fit]
47 | CCn1ccc(C(=O)N2CCC3(CC2)c2[nH]c4ccc(OC)cc4c2CCN3C)n1 | inactive
48 | COc1ccc(C2Cn3nnc(C(=O)N4CCN(C(=O)Cc5ccccc5C)CC4)c3CO2)cc1 (stereo not drawn) | inactive
49 | O=C(c1cccs1)N1CCC(Cc2nc(-c3ccncc3)n[nH]2)CC1 | inactive
50 | CC1(C)C[C@H](NCC2CCCCC2)[C@@]2(CCC(=O)NC3CC3)CC[C@](C)(O)C[C@@H]12 | inactive
51 | COc1ccc(C2Cn3cnc(-c4nc(-c5cccs5)no4)c3CO2)cc1 (stereo not drawn) | inconclusive: 50.1 µM [inhibitor, single point]
52 | COc1ccc(Nc2cc3c(cn2)CN(CCc2ccccc2)CCN3)cn1 | active: 50.1 µM
53 | CN(C)Cc1cc(-c2nccn2CC2(CO)CCCC2)ccc1O | inconclusive: 50.1 µM [inhibitor, partial curve, poor fit]
54 | CN(Cc1ccccc1)C(=O)c1ccnc(-c2nnc3ccc(Nc4ccccc4)nn23)c1 | inconclusive: 15.8 µM [inhibitor, full curve, poor fit]
55 | CCCCC1C=CCN1S(=O)(=O)c1cccc(C(=O)NCC(F)(F)F)c1 (stereo not drawn) | inconclusive: 50.1 µM [inhibitor, partial curve, poor fit]
56 | Cn1ncc2c(C(=O)NCCNC(=O)OC(C)(C)C)cc(-c3ccccc3C(F)(F)F)nc21 | inconclusive: 44.7 µM [inhibitor, partial curve, poor fit]
57 | CCOc1ccccc1C(=O)N1CCC[C@H]1c1nc(-c2ccc(C)cc2)no1 | inconclusive: 50.1 µM [inhibitor, partial curve, poor fit]
58 | O=C(c1cccc(C(F)(F)F)c1)N1CCN(CCCn2nc3n(c2=O)CCCC3)CC1 | inactive
59 | CC(=O)NCC(=O)N1CCCC(n2cc(-c3nc(-c4ccccc4)no3)nn2)C1 (stereo not drawn) | inactive
60 | CCOC(=O)C1=C(C)N=C2SC=C(CC(=O)N3CCC(C)CC3)N2C1c1ccccc1F (stereo not drawn) | inconclusive: 50.1 µM [inhibitor, partial curve, poor fit]
61 | CC(NC(=O)C1CCN(C(=O)c2ncn3c2COC(c2ccc(F)cc2)C3)CC1)c1ccc(F)cc1 (stereo not drawn) | inactive
62 | O=C(Nc1ccccc1F)N1CCN(c2ccc3nnc(C4CC4)n3n2)CC1 | inconclusive: 44.7 µM [inhibitor, partial curve, poor fit]
63 | COc1ccc(CN2C[C@H](O)C[C@H]2c2nc(Cc3ccc(F)cc3Cl)no2)c2ccccc12 | inconclusive: 50.1 µM [inhibitor, partial curve, poor fit]
